PubChem BioAssay AID2202238 (Ras Initiative Chemistry Research Team, Frederick National …, 2025)
This is one part of the list. Further columns of the screen follow, without active or inactive calls.

Target: GTPase KRas (Homo sapiens) (UniProt P01116)
Experiment: Fragment capture on engineered cysteines, share of protein labelled (AID 2202238)
Set-up: protein at 5 µM with 500 µM competing thiol for 1.5 h
Settings: KRAS G12D cysteine mutants, disulfide tethering, MALDI-TOF labeling, stronger effect = higher value, fragment at 500 µM
[1] = measured here: G75C mutant labeling
[2] = measured here: H94C mutant labeling
[3] = measured here: I36C mutant labeling
[4] = measured here: L120C mutant labeling
[5] = measured here: M67C mutant labeling
[6] = measured here: M72C mutant labeling
[7] = measured here: N86C mutant labeling
[8] = measured here: P121C mutant labeling
[9] = measured here: S122C mutant labeling
[10] = measured here: S136C mutant labeling
[11] = measured here: G60C mutant labeling
[12] = measured here: N26C mutant labeling

Sequence of UniProt P01116 (P01116 whole entry, looked up, the tested form may be a part): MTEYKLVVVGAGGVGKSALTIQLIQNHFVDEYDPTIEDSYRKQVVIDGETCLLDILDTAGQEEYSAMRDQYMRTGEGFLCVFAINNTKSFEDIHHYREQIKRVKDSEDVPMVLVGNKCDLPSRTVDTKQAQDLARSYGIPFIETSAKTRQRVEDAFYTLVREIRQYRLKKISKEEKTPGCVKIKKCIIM

| Structure (SMILES) | percent labeling [1] [%] | percent labeling [2] [%] | percent labeling [3] [%] | percent labeling [4] [%] | percent labeling [5] [%] | percent labeling [6] [%] | percent labeling [7] [%] | percent labeling [8] [%] | percent labeling [9] [%] | percent labeling [10] [%] | percent labeling [11] [%] | percent labeling [12] [%] |
| --- | --- | --- | --- | --- | --- | --- | --- | --- | --- | --- | --- | --- |
| O=C(CCS)Nc1cnc2c(c1)COCC2 | 14.5 | 23.8 | 40.5 | 24.7 | 34.4 | 36.2 | 27.1 | 28.6 | 26.9 | 52.4 |  |  |
| CC(C)Cn1ccc2c(C(=O)NCCS)cccc21 | 11.1 | 14.3 | 8.9 | 16.7 | 12.5 | 47.8 | 10.3 | 12.2 | 11 | 17.9 | 18.7 | 32.6 |
| Cc1c(-c2ccc(Cl)cc2)n[nH]c1C(=O)NCCS | 12.7 | 11 | 8.4 | 15.2 | 8.6 | 40.3 | 11.3 | 12.2 | 8 | 11.5 | 14.8 | 27.9 |
| O=C(CCS)NCCn1cc(Br)ccc1=O | 10.4 | 32.2 | 37.1 | 27.9 | 40.6 | 20.7 | 15.2 | 35.7 | 38.4 | 46.4 |  |  |
| CCOC(=O)C(NC(=O)CCS)c1c(C)nn(Cc2ccccc2)c1C (centres undefined) | 9.1 | 25.2 | 29.4 | 19.8 | 31.8 | 26.4 | 17.1 | 30.2 | 23.7 | 53.7 |  |  |
| O=C(CCS)NCC(=O)Nc1nccs1 | 12.2 | 26.6 | 38.6 | 34.3 | 30.6 | 23.5 | 36.2 | 35.7 | 30.4 | 45.6 |  |  |
| CC(O)(Cn1ccc2sccc2c1=O)C(=O)NCCS (centres undefined) | 20.7 | 36.3 | 33.8 | 32.6 | 40.8 | 28.1 | 25.8 | 37.1 | 33 | 48.9 | 41.6 | 41.5 |
| CC1(C)CCC(C(=O)NCCS)C(c2ccccc2)C1 (centres undefined) | 9.8 | 14.9 | 8.9 | 21.4 | 20.1 | 36.2 | 18.9 | 14.8 | 12.9 | 25 | 37.3 | 23 |
| O=C(NCCS)[C@@H]1OCCO[C@@H]1c1ccccc1 | 16.2 | 35 | 21.1 | 43.8 | 31.2 | 30.8 | 23.6 | 32.8 | 33.2 | 52.5 | 40 | 34.8 |
| Cc1ccc2ncc(NC(=O)CCS)cc2c1 | 13.4 | 20.4 | 25.3 | 11.2 | 11.8 | 65.5 | 9.5 | 16.8 | 16.7 | 34.9 |  |  |
| O=C(CCS)NCC1(c2cccc(C(F)(F)F)c2)CCC1 | 12.1 | 30 | 22.2 | 16.7 | 21.9 | 36.2 | 10.1 | 19.4 | 16.3 | 36.5 |  |  |
| O=C(CC1CCN(CC(F)F)CC1)NCCS | 11.1 | 30.6 | 20.1 | 30.2 | 28.3 | 10.8 | 17.7 | 27 | 28.1 | 38.7 | 20.6 | 33.1 |
| O=C(CCS)Nc1ccc(C(=O)O)cc1O | 14 | 29 | 22 | 42.8 | 17.1 | 15.4 | 36.2 | 33.7 | 39.7 | 34.9 | 21 | 40 |
| Cc1cc2ncn(CC(O)CNC(=O)CCS)c2cc1C (centres undefined) | 13.7 | 31.4 | 38.4 | 30.4 | 42.3 | 26 | 21.7 | 42.7 | 22.4 | 44.5 |  |  |
| CN1Cc2cc(C(=O)NCCS)ccc2NC1=O | 11.8 | 16.8 | 15.4 | 22.4 | 17.9 | 36.8 | 18.5 | 15.3 | 13.8 | 28.2 | 21.7 | 42.9 |
| Cc1nc(Cl)ccc1CNC(=O)CCS | 14.8 | 30.9 | 36.6 | 22.9 | 34.3 | 24.2 | 22.5 | 36.3 | 35.8 | 47.9 |  |  |

| Structure (SMILES) | percent labeling [1] [%] | percent labeling [2] [%] | percent labeling [3] [%] | percent labeling [4] [%] | percent labeling [5] [%] | percent labeling [6] [%] | percent labeling [7] [%] | percent labeling [8] [%] | percent labeling [9] [%] | percent labeling [10] [%] | percent labeling [11] [%] | percent labeling [12] [%] |
| --- | --- | --- | --- | --- | --- | --- | --- | --- | --- | --- | --- | --- |
| O=C(CCS)Nc1nnc(CC2CCCC2)s1 | 15.1 | 16.7 | 16.6 | 11.6 | 18.9 | 54.6 | 11.8 | 20.2 | 14.3 | 26.6 |  |  |
| O=C(CCS)Nc1cccc2c1CN(c1ccccn1)C2 | 0 | 8 | 16.8 | 7.8 | 10.2 | 3.9 | 0 | 6.7 | 6.5 | 16.4 |  |  |
| Cc1ncsc1C(=O)N1CCCN(C(=O)CCS)CC1 | 8.4 | 35.6 | 39.4 | 24 | 44.3 | 17.1 | 29.8 | 32.1 | 29.4 | 54.4 |  |  |
| COCCn1nnc2c1CCN(C(=O)CCS)C2 | 8.3 | 25.9 | 28.4 | 26.1 | 30.6 | 14.8 | 15.2 | 28.5 | 30.2 | 46.6 |  |  |
| CN1CC(C(=O)NCCS)c2ccccc2C1=O (centres undefined) | 6.4 | 24.7 | 17.6 | 47.3 | 27.4 | 12.2 | 10 | 26.4 | 19.2 | 41 | 26.1 | 28.2 |
| NC(=O)C1CCN(c2ncccc2CNC(=O)CCS)CC1 | 5.9 | 30.3 | 25.3 | 25.1 | 36.7 | 8.3 | 10.7 | 22.3 | 22.1 | 42.3 |  |  |
| O=C(CN1CCN(C(=O)CCS)CC1)Nc1ccccc1 | 12.1 | 29.3 | 33.2 | 29.5 | 65.7 | 19.4 | 24.3 | 34.2 | 33 | 46.7 |  |  |
| COC(=O)c1ccc(CN(C)C(=O)CCS)o1 | 14.1 | 29.9 | 35.8 | 38.8 | 35 | 21.3 | 26.2 | 33.7 | 37 | 54.4 |  |  |
| O=C(CN1CCC(C(F)(F)F)CC1)NCCS | 20.9 | 39.7 | 27.5 | 57.1 | 35.3 | 26.5 | 28.9 | 37.3 | 33.7 | 49.4 | 39.8 | 49.2 |
| O=C(NCCS)C1=NN(c2ccc(S(=O)(=O)O)cc2)C(=O)C1 | 16 | 14.5 | 14.3 | 40.1 | 12.1 | 23.3 | 16.7 | 17.2 | 32.9 | 25.8 |  |  |
| Cc1nc(CN2CCC(CNC(=O)CCS)CC2)cs1 | 11.8 | 39 | 51.5 | 30.3 | 47.5 | 20.7 | 20.6 | 30.9 | 33.2 | 47.9 |  |  |
| O=C(CCS)NCC(=O)Nc1ccc(F)cc1 | 8.1 | 15.8 | 22.8 | 21 | 18.9 | 19.1 | 19 | 21.4 | 20.4 | 26.3 |  |  |
| Cn1ccc(C(=O)NC2(C(=O)NCCS)CCCCCC2)cc1=O | 11.9 | 32.5 | 23.4 | 35.8 | 24.7 | 20.1 | 25.2 | 25.1 | 22.6 | 42.5 | 37.1 | 29 |
| O=C(CCS)Nc1cc2n(n1)CCCN(Cc1ccccc1)C2 | 17.7 | 31.9 | 36.4 | 25.8 | 40.6 | 36.9 | 31.2 | 20.7 | 22.1 | 49.6 |  |  |
| COc1ccc(C(=O)Nc2cc(F)ccc2C(=O)NCCS)cc1 | 15.1 | 15.4 | 13.2 | 7.7 | 6.5 | 25.1 | 6.7 | 6.4 | 3.8 | 16.6 | 32.3 | 23.9 |
